Data taken from the antibiotic and cytotoxicity screens of Wong et al. (2023).
This is one part of the list.

Experiments:
[1] = tested on: HSkMC (human skeletal muscle cells); experiment: cytotoxicity call (relative viability < 0.9); details: 10 µM
[2] = tested on: S. aureus RN4220; experiment: growth inhibition call (relative growth <= 0.2); details: 50 µM

Compound	cytotoxicity call [1]	growth inhibition call [2]
C[C@H]1CN([C@@H](C)CO)C(=O)Cc2cc(NC(=O)Nc3cccc4ccccc34)ccc2O[C@H]1CN(C)Cc1ccc(C(=O)O)cc1	inactive	inactive
C=CC[C@H](CC(=O)N(CCO)Cc1ccccc1)C(=O)N[C@@H](COC(=O)[C@H](CC=C)CC(=O)OC(C)(C)C)Cc1c[nH]c2ccccc12	inactive	inactive
Cc1noc(C)c1S(=O)(=O)Nc1ccc2c(c1)C(=O)N([C@@H](C)CO)C[C@H](C)[C@@H](CN(C)Cc1ccc(C(=O)Nc3ccccc3N)cc1)OCCCC[C@@H](C)O2	inactive	inactive
C[C@@H]1CN([C@@H](C)CO)C(=O)c2cccc(NC(=O)Nc3ccc4c(c3)OCO4)c2O[C@H]1CN(C)Cc1ccc(Oc2ccccc2)cc1	inactive	inactive
C[C@@H]1CN([C@H](C)CO)C(=O)c2cc(NC(=O)C3CCCCC3)ccc2O[C@@H](C)CCCCO[C@H]1CN(C)S(=O)(=O)c1ccc(F)cc1	inactive	inactive
CC(C)NC(=O)N(C)C[C@H]1Oc2c(NC(=O)Nc3ccc4c(c3)OCO4)cccc2C(=O)N([C@@H](C)CO)C[C@H]1C	inactive	inactive
N=c1c(C(=O)NC[C@H]2CCCO2)cc2c(=O)n3ccccc3nc2n1CCCN1CCOCC1	inactive	inactive
C[C@H](CO)N1C[C@H](C)[C@@H](CN(C)C(=O)c2ccccc2)OCCCC[C@H](C)Oc2ccc(NS(=O)(=O)c3ccccc3)cc2C1=O	inactive	inactive
COc1ccc(S(=O)(=O)N(C)C[C@H]2Oc3ccc(NC(=O)Nc4cccc5ccccc45)cc3C(=O)N([C@H](C)CO)C[C@H]2C)cc1	inactive	inactive
Cc1cccc2ccccc12	inactive	inactive
COc1ccc(C#Cc2ccc3c(c2)O[C@@H](CN(C)C(=O)CN2CCOCC2)[C@H](C)CN([C@H](C)CO)S3(=O)=O)cc1	inactive	inactive
COCC(=O)N1C[C@H](C)[C@H](OC)CN(C)C(=O)c2cc(NC(=O)c3ccc(OC)cc3)ccc2OC[C@@H]1C	inactive	inactive
C[C@H](CO)N1C[C@H](C)[C@@H](CN(C)Cc2ccc(C(=O)Nc3ccccc3N)cc2)Oc2ccc(NC(=O)Nc3ccc(C(F)(F)F)cc3)cc2C1=O	inactive	inactive
CN(C)CCOC(c1ccc(Cl)cc1)c1ccccn1.O=C(O)C=CC(=O)O (stereo unspecified)	inactive	inactive
CN(C)C(=O)c1cccc(-c2cccc(-c3nc(C(=O)N4CCCCC4)cc4c3[C@H](CCO)N([S@@](=O)C(C)(C)C)C4)c2)c1	inactive	inactive
C[C@@H]1CN([C@H](C)CO)C(=O)Cc2cc(NC(=O)C3CC3)ccc2O[C@H]1CN(C)C(=O)Nc1ccc2c(c1)OCO2	inactive	inactive
C[C@@H]1CCCCO[C@@H](CN(C)C(=O)C2CCCCC2)[C@@H](C)CN([C@@H](C)CO)C(=O)c2cc(NC(=O)NC3CCCCC3)ccc2O1	inactive	inactive
C[C@H](CO)N1C[C@H](C)[C@H](CN(C)Cc2ccc3c(c2)OCO3)Oc2ccc(NC(=O)Nc3cccc4ccccc34)cc2CC1=O	inactive	inactive
C[C@@H]1CN([C@@H](C)CO)C(=O)c2cc(NS(=O)(=O)c3ccc(Cl)cc3)ccc2O[C@@H](C)CCCCO[C@@H]1CN(C)Cc1ccc2c(c1)OCO2	inactive	inactive
Cc1noc(C)c1S(=O)(=O)Nc1ccc2c(c1)C(=O)N([C@@H](C)CO)C[C@@H](C)[C@H](CN(C)Cc1ccccc1)OCCCC[C@H](C)O2	inactive	inactive

Compound	cytotoxicity call [1]	growth inhibition call [2]
O=C(CN1CCOCC1)NCC[C@H]1CC[C@@H](NS(=O)(=O)c2ccc(F)cc2)[C@H](CO)O1	inactive	inactive
C[C@H]1CN([C@@H](C)CO)C(=O)c2cccc(NS(=O)(=O)c3ccc(F)cc3)c2O[C@@H]1CN(C)CC1CC1	inactive	inactive
Cc1ccc(S(=O)(=O)Nc2ccc3c(c2)C(=O)N([C@H](C)CO)C[C@@H](C)[C@H](CN(C)C(=O)NC2CCCCC2)OCCCC[C@H](C)O3)cc1	inactive	inactive
O=C(C[C@H]1CC[C@@H](NC(=O)c2cnccn2)[C@@H](CO)O1)NCc1ccccc1F	inactive	inactive
O=C(C[C@@H]1CC[C@H]2[C@@H](COC[C@H](O)CN2C(=O)Nc2cccc(F)c2)O1)NCCCN1CCOCC1	inactive	inactive
O=C(Nc1cccc2cccnc12)[C@@H]1[C@H](c2ccc(-c3ccccc3)cc2)CC(=O)N1C(=O)OCc1ccccc1	inactive	inactive
CC(C)CNC(=O)C(=O)NC(C)C	inactive	inactive
C[C@@H]1CN([C@H](C)CO)S(=O)(=O)c2ccc(C#CCN(C)C)cc2O[C@H]1CN(C)C(=O)Nc1ccccc1F	inactive	inactive
Cc1ccc(S(=O)(=O)Nc2cccc3c2O[C@H](CN(C)Cc2ccc(Cl)c(Cl)c2)[C@H](C)CN([C@H](C)CO)C3=O)cc1	inactive	inactive
Cc1ccc(S(=O)(=O)Nc2ccc3c(c2)C(=O)N([C@@H](C)CO)C[C@@H](C)[C@@H](CN(C)C(=O)Nc2ccc4c(c2)OCO4)OCCCC[C@H](C)O3)cc1	inactive	inactive
Cc1noc(C)c1S(=O)(=O)Nc1ccc2c(c1)C(=O)N([C@H](C)CO)C[C@H](C)[C@H](CN(C)Cc1ccc3c(c1)OCO3)O2	inactive	inactive
COC(=O)CCC(C)C1CCC2C3CCC4CC(O)CCC4(C)C3CC(O)C12C (stereo unspecified)	inactive	inactive
C[C@@H]1CN([C@H](C)CO)C(=O)c2cc(NS(=O)(=O)c3ccc(Cl)cc3)ccc2O[C@@H](C)CCCCO[C@H]1CN(C)Cc1ccc2c(c1)OCO2	inactive	inactive
C[C@@H]1CN([C@@H](C)CO)C(=O)Cc2cc(NC(=O)Cc3cn(C)c4ccccc34)ccc2O[C@H]1CN(C)Cc1ccc(Cl)c(Cl)c1	inactive	inactive
CCOn1ccnc1	inactive	inactive
C[C@@H]1CN(S(=O)(=O)N2CCN(C(=O)c3[nH]nc4ccccc34)CC2)C[C@H](C)O1	inactive	inactive
COc1cccc(-c2ccc3c(c2)O[C@@H](CN(C)Cc2cncnc2)[C@@H](C)CN([C@@H](C)CO)S3(=O)=O)c1	inactive	inactive
COc1ccc(S(=O)(=O)Nc2ccc3c(c2)C(=O)N([C@H](C)CO)C[C@H](C)[C@H](CN(C)C(=O)Nc2c(C)noc2C)OCCCC[C@@H](C)O3)cc1	inactive	inactive
C[C@@H]1CN([C@@H](C)CO)C(=O)Cc2cc(NC(=O)Nc3ccccc3)ccc2O[C@H]1CN(C)Cc1ccc(Cl)c(Cl)c1	inactive	inactive
COc1cc(CO)cc(I)c1O[C@H]1C=C(C(=O)NCCO)C[C@@H](NCc2ccc(F)cc2)[C@@H]1O	inactive	inactive

Compound	cytotoxicity call [1]	growth inhibition call [2]
Cc1ccc(S(=O)(=O)Nc2ccc3c(c2)C(=O)N([C@@H](C)CO)C[C@H](C)[C@@H](CN(C)S(=O)(=O)c2ccc(F)cc2)OCCCC[C@H](C)O3)cc1	inactive	inactive
O[C@H]1[C@H](O)[C@@H](O)[C@H]2O[C@@H]2[C@@H]1O	inactive	inactive
C[C@@H]1CN([C@H](C)CO)C(=O)Cc2cc(NC(=O)Nc3cccc4ccccc34)ccc2O[C@H]1CN(C)C(=O)NC1CCCCC1	inactive	inactive
C[C@H](CO)N1C[C@H](C)[C@@H](CN(C)C(=O)Nc2cccc3ccccc23)Oc2ccc(NC(=O)Nc3ccc(C(F)(F)F)cc3)cc2C1=O	inactive	inactive
C[C@@H]1CN([C@@H](C)CO)C(=O)c2cc(NC(=O)Nc3ccc(F)cc3)ccc2O[C@@H]1CN(C)Cc1ccc(C(=O)Nc2ccccc2N)cc1	inactive	inactive
COc1ccc(NC(=O)Nc2ccc3c(c2)C(=O)N([C@@H](C)CO)C[C@@H](C)[C@@H](CN(C)CC2CCCCC2)OCCCC[C@H](C)O3)cc1	inactive	inactive
C[C@H](N)C(=O)N[C@@]1(C(=O)O)C[C@@H](Sc2nnc[nH]2)[C@H]2[C@H](C(=O)O)[C@H]21	inactive	inactive
CCc1nc2ccc(C(=O)N3CCN(C(=O)c4ccco4)CC3)cn2c1N(C)C(=O)COc1ccccc1	inactive	inactive
Cc1ccc(S(=O)(=O)Nc2ccc3c(c2)C(=O)N([C@H](C)CO)C[C@H](C)[C@@H](CN(C)S(=O)(=O)c2ccc(F)cc2)OCCCC[C@H](C)O3)cc1	active	inactive
C[C@H]1CN([C@@H](C)CO)S(=O)(=O)c2ccc(-c3ccncc3)cc2O[C@@H]1CN(C)Cc1ccc(Oc2ccccc2)cc1	inactive	inactive
C[C@H]1CN([C@@H](C)CO)C(=O)c2cc(NC(=O)CCCCCC(=O)Nc3ccccc3N)ccc2O[C@@H]1CN(C)CC1CCCCC1	inactive	inactive
C[C@@H]1CCCCO[C@H](CN(C)S(=O)(=O)c2ccc(Cl)cc2)[C@H](C)CN([C@@H](C)CO)C(=O)c2cc(NC(=O)Nc3ccc(F)cc3)ccc2O1	inactive	inactive
COc1ccc(S(=O)(=O)Nc2ccc3c(c2)CC(=O)N([C@@H](C)CO)C[C@H](C)[C@H](CN(C)C)O3)cc1	inactive	inactive
C[C@@H]1CCCCO[C@H](CN(C)Cc2ccncc2)[C@@H](C)CN([C@@H](C)CO)C(=O)c2cc(NC(=O)Nc3ccc4c(c3)OCO4)ccc2O1	inactive	inactive
COc1cccc(C#Cc2ccc([C@@H]3[C@@H](CO)N4C(=O)CN(S(=O)(=O)c5ccccc5C)C[C@H]34)cc2)c1	inactive	inactive
O=c1[nH]nc(Br)c(=O)[nH]1	inactive	inactive
COc1ccc(S(=O)(=O)Nc2ccc3c(c2)C(=O)N([C@H](C)CO)C[C@H](C)[C@@H](CN(C)Cc2ccc4c(c2)OCO4)OCCCC[C@@H](C)O3)cc1	inactive	inactive
C[C@@H]1CN([C@H](C)CO)C(=O)c2cc(NC(=O)Cc3ccccc3)ccc2O[C@@H](C)CCCCO[C@H]1CN(C)S(=O)(=O)c1ccc(F)cc1	inactive	inactive
